Results reported in article PMC4336329 (PLoS ONE, 2015).
Out of some 310,000 compounds screened, about 14,000 (4.5%) showed an effect of 50% or more. Effects have a minus sign here. The list shows a part of the results.
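Note: peak tail current of the secondary pulse compared with the same well before compound.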

Each compound was assayed against human ether-à-go-go-related gene (hERG) potassium channel (human, UniProt Q12809) (assay: primary screen, population patch clamp on CHO cells stably expressing hERG).
human ether-à-go-go-related gene (hERG) potassium channel, sequence (Q12809 whole entry, looked up): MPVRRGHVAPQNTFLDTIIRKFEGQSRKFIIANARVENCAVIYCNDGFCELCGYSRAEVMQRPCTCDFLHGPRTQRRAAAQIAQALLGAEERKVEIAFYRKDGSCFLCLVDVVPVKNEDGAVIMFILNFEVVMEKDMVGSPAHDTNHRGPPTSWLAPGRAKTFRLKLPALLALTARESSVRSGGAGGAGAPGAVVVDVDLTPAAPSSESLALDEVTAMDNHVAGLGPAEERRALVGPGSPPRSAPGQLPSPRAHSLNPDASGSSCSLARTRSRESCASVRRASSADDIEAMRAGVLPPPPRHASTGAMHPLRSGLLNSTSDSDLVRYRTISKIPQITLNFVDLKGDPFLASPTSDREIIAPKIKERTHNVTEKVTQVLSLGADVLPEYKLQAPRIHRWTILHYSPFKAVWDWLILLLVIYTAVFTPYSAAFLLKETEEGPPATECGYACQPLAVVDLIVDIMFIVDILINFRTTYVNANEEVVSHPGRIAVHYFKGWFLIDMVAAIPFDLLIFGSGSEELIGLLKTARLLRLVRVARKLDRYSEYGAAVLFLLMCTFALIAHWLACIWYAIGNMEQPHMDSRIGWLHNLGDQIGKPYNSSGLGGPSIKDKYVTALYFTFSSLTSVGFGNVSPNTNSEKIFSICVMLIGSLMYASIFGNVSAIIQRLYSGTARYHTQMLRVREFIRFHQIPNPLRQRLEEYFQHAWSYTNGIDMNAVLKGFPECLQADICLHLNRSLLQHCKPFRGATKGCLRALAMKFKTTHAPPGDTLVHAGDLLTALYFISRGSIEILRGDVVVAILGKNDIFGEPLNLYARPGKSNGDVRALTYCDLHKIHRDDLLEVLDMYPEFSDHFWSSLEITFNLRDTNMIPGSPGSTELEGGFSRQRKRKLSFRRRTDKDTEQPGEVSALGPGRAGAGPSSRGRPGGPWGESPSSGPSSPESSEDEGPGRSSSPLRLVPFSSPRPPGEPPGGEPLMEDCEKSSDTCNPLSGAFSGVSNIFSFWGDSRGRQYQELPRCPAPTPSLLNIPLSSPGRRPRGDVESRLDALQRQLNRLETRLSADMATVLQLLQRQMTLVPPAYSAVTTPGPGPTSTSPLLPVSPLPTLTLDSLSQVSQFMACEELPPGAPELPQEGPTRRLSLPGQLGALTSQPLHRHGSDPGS
With `c1ccc(CN2CCN(c3cnc4ccccc4n3)CC2)cc1` the “hERG current change (%, negative = inhibition) at 10uM” value was -19.6%. In the case of `COc1cc(OC)c(NC(=O)c2sc3ncn(CC(=O)N4CCN(c5ccccn5)CC4)c(=O)c3c2C)cc1Cl`, the “hERG current change (%, negative = inhibition) at 10uM” value is reported as -2.27%. With `Brc1ccccc1-c1nnc(COc2ncnc3c2cnn3-c2ccccc2)o1` the “hERG current change (%, negative = inhibition) at 10uM” value was 7.27%. With `CCOCC(=O)Nc1c(C(=O)OCC)oc2ccccc12` the “hERG current change (%, negative = inhibition) at 10uM” value was -11.1%. With `COc1ccc(C(C)=O)cc1COC(=O)c1ccc(S(=O)(=O)N(C)C)cc1` the “hERG current change (%, negative = inhibition) at 10uM” value was -2.42%. For `Cc1cccc(Nc2nc3c(s2)CCCC3)c1`, the “hERG current change (%, negative = inhibition) at 10uM” value was -8.11%. For `COc1cc(C(C(=O)NC2CCCCC2)N(C(=O)c2snc(C(N)=O)c2N)c2ccc(C)cc2)ccc1O` (centres unmarked), the “hERG current change (%, negative = inhibition) at 10uM” value was 2.2%. `CCCCN(C)C(=O)C1CCC(CNS(=O)(=O)c2ccc3c(c2)CC(C)N3C(=O)C2CC2)CC1` (centres unmarked) was tested, and the “hERG current change (%, negative = inhibition) at 10uM” value was -9.69%. For `Cc1cc(NC(=O)c2ccc(Cl)cc2)ccc1NC(=O)c1ccccc1Cl`, the “hERG current change (%, negative = inhibition) at 10uM” value was 9.97%. For `c1cncc(-c2ccnc3ncnn23)c1`, the “hERG current change (%, negative = inhibition) at 10uM” value was -4.79%. In the case of `O=C(O)c1ccc(CSc2nnc(-c3cccnc3)n2-c2ccc(Br)cc2)cc1`, the “hERG current change (%, negative = inhibition) at 10uM” value is reported as 15.1%. For `NS(=O)(=O)c1ccc(CCNC(=O)CCCn2c(SCC(=O)N3CCCC3)nc3ccsc3c2=O)cc1`, the “hERG current change (%, negative = inhibition) at 10uM” value was -4.32%. For `CCOC(=O)c1cc(-c2cccc([N+](=O)[O-])c2)nc2[nH]c(=O)[nH]c(=O)c12`, the “hERG current change (%, negative = inhibition) at 10uM” value was -15.7%. `COCCCN(C(=O)CCOc1ccc(C)cc1)c1c(N)n(Cc2ccccc2)c(=O)[nH]c1=O` was tested, and the “hERG current change (%, negative = inhibition) at 10uM” value was -20.2%. With `CCN(CC)CCOC(=O)C1(c2ccccc2)CCCC1.Cl` the “hERG current change (%, negative = inhibition) at 10uM” value was -4.03%. For `CCC1CCc2sc(C(=O)N3CCCN(C)CC3)cc2C1` (centres unmarked), the “hERG current change (%, negative = inhibition) at 10uM” value was -12.9%. In the case of `COc1ccccc1-c1noc(-c2ccco2)n1`, the “hERG current change (%, negative = inhibition) at 10uM” value is reported as -0.686%. In the case of `S=C1NCCOCCOCCOCCOCCNC(=S)NCCOCCOCCOCCOCCN1`, the “hERG current change (%, negative = inhibition) at 10uM” value is reported as 0.341%. `CCOc1ccc(/C=C/C(=O)N(CC)CC(=O)Nc2ccc3c(c2)OCCO3)cc1OCC` was tested, and the “hERG current change (%, negative = inhibition) at 10uM” value was -2.6%. For `COC(=O)c1c(C(C)=O)cnc2ccc(Br)cc12`, the “hERG current change (%, negative = inhibition) at 10uM” value was -1.23%. For `CN1CCc2c(sc(NC(=O)c3ccc(S(=O)(=O)N4CCOCC4)cc3)c2C(N)=O)C1`, the “hERG current change (%, negative = inhibition) at 10uM” value was -1.12%. In the case of `c1ccc2[nH]c(SCCN3CCOCC3)nc2c1`, the “hERG current change (%, negative = inhibition) at 10uM” value is reported as -0.944%. For `CN1CCC(OC(=O)C2c3ccccc3Oc3ccccc32)CC1.Cl`, the “hERG current change (%, negative = inhibition) at 10uM” value was -11.4%. For `N#Cc1ccccc1CSc1nnc(Cc2ccccc2)o1`, the “hERG current change (%, negative = inhibition) at 10uM” value was 3.77%. In the case of `CCOC(=O)c1c(NC(=O)CSc2nnnn2C)sc(CC)c1C`, the “hERG current change (%, negative = inhibition) at 10uM” value is reported as -7.7%. With `O=C(COc1ccc(S(=O)(=O)N2CCOCC2)cc1)NCc1ccco1` the “hERG current change (%, negative = inhibition) at 10uM” value was 6.51%. `COCCOc1ccc(C(F)(F)F)cc1Nc1nc2ccccc2o1` was tested, and the “hERG current change (%, negative = inhibition) at 10uM” value was 1.14%. For `Cc1ccc(C)n1-c1nn(S(=O)(=O)c2ccccc2)c2cccc(F)c12`, the “hERG current change (%, negative = inhibition) at 10uM” value was 12.9%. `COc1ccc(OC)c(NC(=O)CN(c2ccc(C)cc2)S(=O)(=O)c2c(C)n[nH]c2C)c1` was tested, and the “hERG current change (%, negative = inhibition) at 10uM” value was 12.8%. With `Cc1cc(C)n(-c2nncn2/N=C/c2ccccc2F)n1` the “hERG current change (%, negative = inhibition) at 10uM” value was 3.06%. In the case of `CCC1Oc2ccccc2N(CC(=O)NCCc2ccc(OC)c(OC)c2)C1=O` (centres unmarked), the “hERG current change (%, negative = inhibition) at 10uM” value is reported as -0.0515%. For `COc1ccc(NC(=O)NC2CCCCCCC2)cc1OC`, the “hERG current change (%, negative = inhibition) at 10uM” value was 3.21%. For `O=C(C1CCN(Cc2ccccc2)CC1)N1CCN(C/C=C/c2ccccc2)CC1.O=C(O)C(=O)O`, the “hERG current change (%, negative = inhibition) at 10uM” value was -33.3%. `C/C(=N\Nc1ccccn1)c1ccc(C#N)cc1` was tested, and the “hERG current change (%, negative = inhibition) at 10uM” value was -19.3%. In the case of `CC1CCN(C(=S)NC(=O)C2CCCCC2)CC1`, the “hERG current change (%, negative = inhibition) at 10uM” value is reported as 10.2%. `Cn1c(=O)cc(SCC(=O)NCC2CCCO2)c2ccccc21` (centres unmarked) was tested, and the “hERG current change (%, negative = inhibition) at 10uM” value was 6.34%. For `COc1ccc(-c2nc3c4ccccc4ccn3c2CN2CCCCC2)cc1`, the “hERG current change (%, negative = inhibition) at 10uM” value was -22.1%. For `CCN=C(N/N=C/c1ccc([N+](=O)[O-])cc1)SC.I`, the “hERG current change (%, negative = inhibition) at 10uM” value was -20.3%. In the case of `C#CCSc1nsc(SCC#C)c1C#N`, the “hERG current change (%, negative = inhibition) at 10uM” value is reported as 11.2%. `CC(C)(C)c1ccc(Cn2nnc3c(=O)[nH]c(C4CCCN(C(=O)c5cccs5)C4)nc32)cc1` (centres unmarked) was tested, and the “hERG current change (%, negative = inhibition) at 10uM” value was -0.278%. In the case of `CCOC(=O)C(/C=C(\C#N)C(=O)OCC)=C(/N)N1CCN(c2ccccc2)CC1`, the “hERG current change (%, negative = inhibition) at 10uM” value is reported as 15.6%. In the case of `O=C(Oc1cccc(NC(=O)c2ccco2)c1)c1ccc(Br)c(S(=O)(=O)N2CCCCC2)c1`, the “hERG current change (%, negative = inhibition) at 10uM” value is reported as 7.55%. With `Cc1nn(-c2ccccc2)c2c1C(c1ccccc1)C(C#N)=C(N)O2` (centres unmarked) the “hERG current change (%, negative = inhibition) at 10uM” value was 1.86%. In the case of `OCCC1CN(Cc2ccc(Oc3ncccn3)cc2)CCN1CCc1ccccc1` (centres unmarked), the “hERG current change (%, negative = inhibition) at 10uM” value is reported as -55.2%. `CCOC(=O)c1c(-c2ccc(OC)cc2)csc1NC(=O)CNCc1ccco1` was tested, and the “hERG current change (%, negative = inhibition) at 10uM” value was 2.2%. In the case of `Cc1n[nH]c(=S)n1/N=C/c1ccc(-c2ccc(Cl)cc2)o1`, the “hERG current change (%, negative = inhibition) at 10uM” value is reported as 17.9%. `CC1(C)CC(=O)C(C=NCCN2CCN(CC(=O)Nc3ccccc3)CC2)=C(O)C1` was tested, and the “hERG current change (%, negative = inhibition) at 10uM” value was -5.37%. `Cc1cc(NCCCN)nc(-c2ccccc2O)n1` was tested, and the “hERG current change (%, negative = inhibition) at 10uM” value was 10%. `Cc1ccccc1NC(=O)C1CCCN(S(=O)(=O)c2cnc[nH]2)C1` (centres unmarked) was tested, and the “hERG current change (%, negative = inhibition) at 10uM” value was -10.3%. For `O=C(O)c1ccc(/C=N\Nc2ccc(S(=O)(=O)N3CCOCC3)cc2[N+](=O)[O-])cc1`, the “hERG current change (%, negative = inhibition) at 10uM” value was -9.35%. `COc1ccc(-c2cn[nH]c2-c2ccc(OC)cc2)cc1` was tested, and the “hERG current change (%, negative = inhibition) at 10uM” value was 8.51%. `O=C(CN1CCN(S(=O)(=O)c2cccc(Cl)c2)CC1)NCC1(N2CCOCC2)CCCCC1` was tested, and the “hERG current change (%, negative = inhibition) at 10uM” value was -24.9%. `Cc1ccc2cccc(OCCOCCOc3ccccc3Br)c2n1` was tested, and the “hERG current change (%, negative = inhibition) at 10uM” value was -1.98%. In the case of `CC(C)CCC(C)NC(=O)c1ccc2nccnc2c1` (centres unmarked), the “hERG current change (%, negative = inhibition) at 10uM” value is reported as 0.52%. With `COc1ccc(C2N=C(c3ccccc3)C(C)(C)N2O)cc1` (centres unmarked) the “hERG current change (%, negative = inhibition) at 10uM” value was 6.96%. In the case of `CCOc1cc(N2CCOCC2)c(OCC)cc1NC(=O)COC(=O)c1cc(C)oc1C`, the “hERG current change (%, negative = inhibition) at 10uM” value is reported as -0.0866%.
